The supplement of paper PMC8728848
This is one part of the list.

How the values were obtained:
Experiment in all cases: glycan array binding signal (z-score within array); higher = stronger binding
Details in all cases: glycan notation: IUPAC condensed, linker removed
Fuc(a1-2)Gal6S(b1-4)Glc = biological target: Fuc(a1-2)Gal6S(b1-4)Glc
How it was run: (§1)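 Negative Z-scores can be read as non-binding. The Z-score is calculated within each array and then averaged across arrays of one protein sequence at different concentrations or buffers and across linkers. Arrays, 3228 in all, were curated from the Consortium for Functional Glycomics database and kept only where the protein sequence was available.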

[1] = biological target: Fuc(a1-2)Gal6S(b1-4)Glc6S
How it was run: as §1

[2] = biological target: Fuc(a1-2)Gal6S(b1-4)GlcNAc
How it was run: as §1

Fuc(a1-2)[Gal(a1-3)]Gal = biological target: Fuc(a1-2)[Gal(a1-3)]Gal
How it was run: as §1

[3] = biological target: Fuc(a1-2)[Gal(a1-3)]Gal(b1-3)GalNAc
How it was run: as §1

[4] = biological target: Fuc(a1-2)[Gal(a1-3)]Gal(b1-3)GlcNAc
How it was run: as §1

[5] = biological target: Fuc(a1-2)[Gal(a1-3)]Gal(b1-3)GlcNAc(b1-2)Man(a1-3)[Fuc(a1-2)[Gal(a1-3)]Gal(b1-3)GlcNAc(b1-2)Man(a1-6)]Man(b1-4)GlcNAc(b1-4)GlcNAc
How it was run: as §1

[6] = biological target: Fuc(a1-2)[Gal(a1-3)]Gal(b1-3)GlcNAc(b1-2)Man(a1-3)[Fuc(a1-2)[Gal(a1-3)]Gal(b1-3)GlcNAc(b1-2)Man(a1-6)]Man(b1-4)GlcNAc(b1-4)[Fuc(a1-6)]GlcNAc
How it was run: as §1

[7] = biological target: Fuc(a1-2)[Gal(a1-3)]Gal(b1-3)GlcNAc(b1-3)GalNAc
How it was run: as §1

[8] = biological target: Fuc(a1-2)[Gal(a1-3)]Gal(b1-4)Glc
How it was run: as §1

[9] = biological target: Fuc(a1-2)[Gal(a1-3)]Gal(b1-4)GlcNAc
How it was run: as §1

[10] = biological target: Fuc(a1-2)[Gal(a1-3)]Gal(b1-4)GlcNAc(b1-2)Man(a1-3)[Fuc(a1-2)[Gal(a1-3)]Gal(b1-4)GlcNAc(b1-2)Man(a1-6)]Man(b1-4)GlcNAc(b1-4)GlcNAc
How it was run: as §1

[11] = biological target: Fuc(a1-2)[Gal(a1-3)]Gal(b1-4)GlcNAc(b1-2)Man(a1-3)[Fuc(a1-2)[Gal(a1-3)]Gal(b1-4)GlcNAc(b1-2)Man(a1-6)]Man(b1-4)GlcNAc(b1-4)[Fuc(a1-6)]GlcNAc
How it was run: as §1

[12] = biological target: Fuc(a1-2)[Gal(a1-3)]Gal(b1-4)GlcNAc(b1-3)GalNAc
How it was run: as §1

[13] = biological target: Fuc(a1-2)[Gal(a1-3)]Gal(b1-4)GlcNAc(b1-6)GalNAc
How it was run: as §1

[14] = biological target: Fuc(a1-2)[Gal(a1-3)]Gal(b1-4)[Fuc(a1-3)]Glc
How it was run: as §1

[15] = biological target: Fuc(a1-2)[Gal(a1-3)]Gal(b1-4)[Fuc(a1-3)]GlcNAc
How it was run: as §1

[16] = biological target: Fuc(a1-2)[Gal(a1-3)]Gal(b1-4)[Fuc(a1-3)]GlcNAc(b1-3)GalNAc
How it was run: as §1

[17] = biological target: Fuc(a1-2)[Gal(a1-4)]Gal(b1-4)GlcNAc
How it was run: as §1

[18] = biological target: Fuc(a1-2)[GalNAc(a1-3)]Gal
How it was run: as §1

[19] = biological target: Fuc(a1-2)[GalNAc(a1-3)]Gal(b1-3)GalNAc(a1-3)[Fuc(a1-2)]Gal(b1-4)GlcNAc
How it was run: as §1

[20] = biological target: Fuc(a1-2)[GalNAc(a1-3)]Gal(b1-3)GlcNAc
How it was run: as §1

B1: ArathEULS3 (Arabidopsis thaliana), Q945P1 (protein)
chain: MEHHHQHHRHHQRDDGEDDRQSFGVPPPHVDAPPQPHGLYQSQPHFDPYAPTPQAPAPYRSETQFEPHAPPPYRSEPYFETPAPPPSFGHVSHVGHQSPNESYPPEHHRYGGYQQPSNSLLESHGDHSGVTHVAHHSSNQPQSSSGVYHKPDENRLPDNLAGLAGRATVKVYSKAEPNYNLTIRDGKVILAPADPSDEAQHWYKDEKYSTKVKDADGHPCFALVNKATGEAMKHSVGATHPVHLIRYVPDKLDESVLWTESKDFGDGYRTIRMVNNTRLNVDAYHGDSKSGGVRDGTTIVLWDWNKGDNQLWKIFPFILEQKLISEEDLNSAVDHHHHHH
Fuc(a1-2)Gal6S(b1-4)Glc
  glycan array binding signal (z-score): 0.231
[1]
  glycan array binding signal (z-score): 0.153
[2]
  glycan array binding signal (z-score): 0.038
Fuc(a1-2)[Gal(a1-3)]Gal
  glycan array binding signal (z-score): -0.303
[3]
  glycan array binding signal (z-score): 0.515
[4]
  glycan array binding signal (z-score): -0.064
[5]
  glycan array binding signal (z-score): -0.243
[6]
  glycan array binding signal (z-score): -0.019
[7]
  glycan array binding signal (z-score): -0.241
[8]
  glycan array binding signal (z-score): 0.023
[9]
  glycan array binding signal (z-score): -0.145
[10]
  glycan array binding signal (z-score): -0.125
[11]
  glycan array binding signal (z-score): -0.169
[12]
  glycan array binding signal (z-score): 0.002
[13]
  glycan array binding signal (z-score): -0.175
[14]
  glycan array binding signal (z-score): -0.245
[15]
  glycan array binding signal (z-score): 0.315
[16]
  glycan array binding signal (z-score): 0.112
[17]
  glycan array binding signal (z-score): -0.393
[18]
  glycan array binding signal (z-score): -0.24
[19]
  glycan array binding signal (z-score): -0.309
[20]
  glycan array binding signal (z-score): 0.163
